{"source": "the supplement of paper PMC8728848", "binders": {"B1": {"name": "IRP60A (Homo sapiens), Q9UGN4 (protein)", "chain": "MWLPWALLLLWVPGCFALSKCRTVAGPVGGSLSVQCPYEKEHRTLNKYWCRPPQIFLCDKIVETKGSAGKRNGRVSIRDSPANLSFTVTLENLTEEDAGTYWCGVDTPWLRDFHDPVVEVEVSVFPASTSMTPASITAAKTSTITTAFPPVSSTTLFAVGATHSASIQEETEEVVNSQLPLLLSLLALLLLLLVGASLLAWRMFQKWIKAGDHSELSQNPKQAATQSELHYANLELLMWPLQEKPAPPREVEVEYSTVASPREELHYASVVFDSNTNRIAAQRPREEEPDSDYSVIRKT"}}, "assay_in_all_cases": "glycan array binding signal (z-score within array); higher = stronger binding", "conditions_in_all_cases": "glycan notation: IUPAC condensed, linker removed", "key": {"[1]": {"molecular_target": "Neu5Ac(a2-3)Gal(b1-4)GlcNAc(b1-3)Gal(b1-4)GlcNAc", "method_in_brief": "(§1)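 Glycan array data came from 3228 arrays in the Consortium for Functional Glycomics database, and only arrays with an available protein sequence were kept. Glycan names were put into IUPAC-condensed notation, and columns mapping to the same glycan were averaged. The binding signal is a within-array Z-score, averaged across arrays of one protein sequence run at different concentrations or buffers and across linkers. A negative Z-score can be read as non-binding.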"}, "[2]": {"molecular_target": "Neu5Ac(a2-3)Gal(b1-4)GlcNAc(b1-3)Gal(b1-4)GlcNAc(b1-3)Gal(b1-4)GlcNAc", "method_in_brief": "as §1"}, "[3]": {"molecular_target": "Neu5Ac(a2-3)Gal(b1-4)GlcNAc6S", "method_in_brief": "as §1"}, "[4]": {"molecular_target": "Neu5Ac(a2-3)Gal(b1-4)[Fuc(a1-3)]GlcNAc", "method_in_brief": "as §1"}, "[5]": {"molecular_target": "Neu5Ac(a2-3)Gal(b1-4)[Fuc(a1-3)]GlcNAc(b1-3)Gal", "method_in_brief": "as §1"}, "[6]": {"molecular_target": "Neu5Ac(a2-3)Gal(b1-4)[Fuc(a1-3)]GlcNAc(b1-3)Gal(b1-4)GlcNAc", "method_in_brief": "as §1"}, "[7]": {"molecular_target": "Neu5Ac(a2-3)Gal(b1-4)[Fuc(a1-3)]GlcNAc(b1-3)Gal(b1-4)[Fuc(a1-3)]GlcNAc(b1-3)Gal(b1-4)[Fuc(a1-3)]GlcNAc", "method_in_brief": "as §1"}, "[8]": {"molecular_target": "Neu5Ac(a2-3)Gal(b1-4)[Fuc(a1-3)]GlcNAc6S", "method_in_brief": "as §1"}, "[9]": {"molecular_target": "Neu5Ac(a2-3)Gal6S(b1-4)GlcNAc", "method_in_brief": "as §1"}, "[10]": {"molecular_target": "Neu5Ac(a2-3)GalNAc", "method_in_brief": "as §1"}, "[11]": {"molecular_target": "Neu5Ac(a2-3)[GalNAc(b1-4)]Gal(b1-4)Glc", "method_in_brief": "as §1"}, "[12]": {"molecular_target": "Neu5Ac(a2-3)[GalNAc(b1-4)]Gal(b1-4)GlcNAc", "method_in_brief": "as §1"}, "[13]": {"molecular_target": "Neu5Ac(a2-3)[Neu5Ac(a2-6)]GalNAc", "method_in_brief": "as §1"}, "[14]": {"molecular_target": "Neu5Ac(a2-6)Gal", "method_in_brief": "as §1"}, "[15]": {"molecular_target": "Neu5Ac(a2-6)Gal(b1-4)Glc", "method_in_brief": "as §1"}, "[16]": {"molecular_target": "Neu5Ac(a2-6)Gal(b1-4)GlcNAc", "method_in_brief": "as §1"}, "[17]": {"molecular_target": "Neu5Ac(a2-6)Gal(b1-4)GlcNAc(b1-3)Gal(b1-4)GlcNAc", "method_in_brief": "as §1"}, "[18]": {"molecular_target": "Neu5Ac(a2-6)Gal(b1-4)GlcNAc(b1-3)Gal(b1-4)[Fuc(a1-3)]GlcNAc(b1-3)Gal(b1-4)[Fuc(a1-3)]GlcNAc", "method_in_brief": "as §1"}, "[19]": {"molecular_target": "Neu5Ac(a2-6)Gal(b1-4)GlcNAc6S", "method_in_brief": "as §1"}, "[20]": {"molecular_target": "Neu5Ac(a2-6)GalNAc", "method_in_brief": "as §1"}, "[21]": {"molecular_target": "Neu5Ac(a2-8)Neu5Ac", "method_in_brief": "as §1"}, "[22]": {"molecular_target": "Neu5Ac(a2-8)Neu5Ac(a2-3)Gal(b1-4)Glc", "method_in_brief": "as §1"}, "[23]": {"molecular_target": "Neu5Ac(a2-8)Neu5Ac(a2-3)[GalNAc(b1-4)]Gal(b1-4)Glc", "method_in_brief": "as §1"}, "[24]": {"molecular_target": "Neu5Ac(a2-8)Neu5Ac(a2-8)Neu5Ac", "method_in_brief": "as §1"}, "[25]": {"molecular_target": "Neu5Ac(a2-8)Neu5Ac(a2-8)Neu5Ac(a2-3)Gal(b1-4)Glc", "method_in_brief": "as §1"}, "[26]": {"molecular_target": "Neu5Ac(a2-8)Neu5Ac(a2-8)Neu5Ac(a2-3)[GalNAc(b1-4)]Gal(b1-4)Glc", "method_in_brief": "as §1"}, "[27]": {"molecular_target": "Neu5Ac(b1-6)GalNAc", "method_in_brief": "as §1"}, "[28]": {"molecular_target": "Neu5Ac(b2-6)Gal(b1-4)GlcNAc", "method_in_brief": "as §1"}, "[29]": {"molecular_target": "Neu5Ac9Ac(a2-6)Gal(b1-4)GlcNAc", "method_in_brief": "as §1"}, "[30]": {"molecular_target": "Neu5Gc(a2-3)Gal(b1-3)GlcNAc", "method_in_brief": "as §1"}, "[31]": {"molecular_target": "Neu5Gc(a2-3)Gal(b1-3)[Fuc(a1-4)]GlcNAc", "method_in_brief": "as §1"}, "[32]": {"molecular_target": "Neu5Gc(a2-3)Gal(b1-4)Glc", "method_in_brief": "as §1"}, "[33]": {"molecular_target": "Neu5Gc(a2-3)Gal(b1-4)GlcNAc", "method_in_brief": "as §1"}, "[34]": {"molecular_target": "Neu5Gc(a2-3)Gal(b1-4)[Fuc(a1-3)]GlcNAc", "method_in_brief": "as §1"}, "[35]": {"molecular_target": "Neu5Gc(a2-6)Gal(b1-4)GlcNAc", "method_in_brief": "as §1"}, "[36]": {"molecular_target": "Neu5Gc(a2-6)GalNAc", "method_in_brief": "as §1"}}, "note": "Some of the results follow.", "data": [{"binder": "B1", "values": [{"measurement": "glycan array binding signal (z-score)", "setting": "[1]", "value": -0.284}, {"measurement": "glycan array binding signal (z-score)", "setting": "[2]", "value": 0.667}, {"measurement": "glycan array binding signal (z-score)", "setting": "[3]", "value": -0.381}, {"measurement": "glycan array binding signal (z-score)", "setting": "[4]", "value": -0.337}, {"measurement": "glycan array binding signal (z-score)", "setting": "[5]", "value": -0.39}, {"measurement": "glycan array binding signal (z-score)", "setting": "[6]", "value": -0.185}, {"measurement": "glycan array binding signal (z-score)", "setting": "[7]", "value": 3.02}, {"measurement": "glycan array binding signal (z-score)", "setting": "[8]", "value": 1.71}, {"measurement": "glycan array binding signal (z-score)", "setting": "[9]", "value": -0.213}, {"measurement": "glycan array binding signal (z-score)", "setting": "[10]", "value": -0.3}, {"measurement": "glycan array binding signal (z-score)", "setting": "[11]", "value": -0.369}, {"measurement": "glycan array binding signal (z-score)", "setting": "[12]", "value": -0.286}, {"measurement": "glycan array binding signal (z-score)", "setting": "[13]", "value": -0.437}, {"measurement": "glycan array binding signal (z-score)", "setting": "[14]", "value": -0.171}, {"measurement": "glycan array binding signal (z-score)", "setting": "[15]", "value": 1.66}, {"measurement": "glycan array binding signal (z-score)", "setting": "[16]", "value": -0.325}, {"measurement": "glycan array binding signal (z-score)", "setting": "[17]", "value": -0.38}, {"measurement": "glycan array binding signal (z-score)", "setting": "[18]", "value": -0.335}, {"measurement": "glycan array binding signal (z-score)", "setting": "[19]", "value": -0.334}, {"measurement": "glycan array binding signal (z-score)", "setting": "[20]", "value": -0.309}, {"measurement": "glycan array binding signal (z-score)", "setting": "[21]", "value": 5.86}, {"measurement": "glycan array binding signal (z-score)", "setting": "[22]", "value": -0.164}, {"measurement": "glycan array binding signal (z-score)", "setting": "[23]", "value": -0.404}, {"measurement": "glycan array binding signal (z-score)", "setting": "[24]", "value": -0.361}, {"measurement": "glycan array binding signal (z-score)", "setting": "[25]", "value": -0.304}, {"measurement": "glycan array binding signal (z-score)", "setting": "[26]", "value": -0.444}, {"measurement": "glycan array binding signal (z-score)", "setting": "[27]", "value": -0.175}, {"measurement": "glycan array binding signal (z-score)", "setting": "[28]", "value": -0.389}, {"measurement": "glycan array binding signal (z-score)", "setting": "[29]", "value": -0.342}, {"measurement": "glycan array binding signal (z-score)", "setting": "[30]", "value": -0.502}, {"measurement": "glycan array binding signal (z-score)", "setting": "[31]", "value": -0.373}, {"measurement": "glycan array binding signal (z-score)", "setting": "[32]", "value": -0.333}, {"measurement": "glycan array binding signal (z-score)", "setting": "[33]", "value": -0.407}, {"measurement": "glycan array binding signal (z-score)", "setting": "[34]", "value": -0.27}, {"measurement": "glycan array binding signal (z-score)", "setting": "[35]", "value": -0.361}, {"measurement": "glycan array binding signal (z-score)", "setting": "[36]", "value": -0.365}]}]}
